According to the supplement of paper PMC10338343:
± gives the standard deviation. Over roughly 3,700 sequences, “pre-steady-state target cleavage rate” has its median near 0.02; the highest 2% begin near 0.23. This is a selection; strong and weak results do not stand in their true shares.

System: MILI (PIWIL2) piRISC loaded with Kctd7 piRNA (26 nt)
Test: pre-steady-state target cleavage rate (min^-1); MIWI and MILI are mouse PIWI proteins and EfPiwi is from a freshwater sponge; tags in brackets are library labels; higher = faster piRNA-guided slicing of the target
Details: guide: Kctd7 piRNA 5'p-UGUUAAUCUCUCAGAGAAGGUGACAG; auxiliary factor: 500 nM mouse GTSF1
In short: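 For Cleave-'n-Seq, a transcribed, DNA-blocked target RNA library […] met 1 nM active affinity-purified piRISC with one synthetic guide at 33 °C for 0–8 or 0–960 min in HEPES–potassium acetate buffer, with or without 500 nM GTSF1 partner protein. Uncleaved targets were sequenced and normalised to depth and weakly complementary targets, with three trials pooled and k3 capped at 0.0001 min^-1. A burst-and-steady-state fit supplied the pre-steady-state cleavage rate.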
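Note: 1 nM active piRISC with 0.1 nM target library at 33 °C single turnover.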

| Sequence | pre-steady-state target cleavage rate |
| --- | --- |
| UAGUGAGUCACCUUCUCUGUGAGAUUAUCA | 0.0358 ± 0.015 |
| UAGUGUGUCACCUUCUGUGAGAGAUUUACA | 0.0788 ± 0.022 |
| UAGUGACAGUGCUUCUCUGAGUCUAAUUGA [g10:g19:cont:t1A] | < 0.0001 |
| UAGUGACAGUGGAAGUCUGAGAGAUUAGACA | < 0.0001 |
| UAGUGACAGUCCUUCUCUGAGAGAUUCAACA | 0.0253 ± 0.0094 |
| UAGUGACAGUGGAAGAGAGACAGAAUAACA | < 0.0001 |
| UAGUCUGUCAGCUUCUCUGAGAGAUUAACA | 0.154 ± 0.0074 |
| UAGUGACUCACCUUCUCUGAGAGUUUAACA | 0.118 ± 0.028 |
| UAGUGACUCAGCUUCUCUGAGAGAUUAUCA | 0.03 ± 0.0087 |
| UAGUGUGUCACCUUCCUCUGAGAGAUUAACA | 0.162 ± 0.016 |
| UAGUGACAGACCUUCUCUGAGAGUAUAAGA | < 0.0001 |
| UAGUGACACACCGUCUCUGAGAGAUUAACA | 0.143 ± 0.015 |
| UAGUGACAGACCUUGCUCUGAGAGAUUAACA | 0.00898 ± 0.0058 |
| UAGUGACAGACCUUCUCUGAGAGAUUAAACA | 0.126 ± 0.015 |
| UAGUGUGUCACCUUCUCUGAGGAGAUUAACA | 0.0158 ± 0.0073 |
| UAGUGACACACCUUCUCUGUGAGAUUAAGA | 0.0129 ± 0.0067 |
| UAGUGACAGUCCUUCUCUGUGAGAUUAUCA | 0.00722 ± 0.002 |
| UAGUGACUGUCCUUCUCUGAGAGAUUAUGA | 0.00765 ± 0.0054 |
| UAGUCUGUCACCUUCUCUCAGACAUUAACA | 0.0408 ± 0.011 |
| UAGUGACAGUGGAAGACUGAGUGAUUAUCA | < 0.0001 |
| UAGUGACAGACCUUCUUUGAGAGAUUAACA | 0.0976 ± 0.011 |
| UAGUGACAGUGCUCCUCUGAGAGAUUAACA | 0.0464 ± 0.0072 |
| UAGUGACAGACCUUGUCAGAGAGAUUAACA | 0.0138 ± 0.0059 |
| UAGUGACUCACCUUGUCUGACAGAUUAACA | 0.0415 ± 0.0082 |

| Sequence | pre-steady-state target cleavage rate |
| --- | --- |
| UAGUGUGUCACCUUCAUCUGAGAGAUUAACA | 0.0928 ± 0.023 |
| UAGUGUGUCACCUUCUCUGUGAGAUUAAGA | 0.0576 ± 0.012 |
| UAGUCUCUCACCUUCUCUCAGAGAUUAACA | 0.043 ± 0.0055 |
| UAGUGACAGUCCUACUGUGAGAGAUUAACA | 0.0112 ± 0.0017 |
| UAGUGACACACCUUCUCUGUGAGAUUAUGA | 0.0111 ± 0.0041 |
| UAGUGACACACCAUCUCUGAGAGAUUAUCA | 0.0696 ± 0.017 |
| UAGUCUGUCACCUUCUCUGAGAGAUUAAGCA | 0.153 ± 0.022 |
| UAGUGUGGCACCUUCUCUGAGAGAUUAACA | 0.147 ± 0.041 |
| UAGUCUGUCACCUUCACUGUGAGAUUAACA | 0.0435 ± 0.0046 |
| UAGUGUGUCACCUUCUCUAGAGAGAUUAACA | 0.0225 ± 0.0093 |
| UAGUGACACACCUCUCUGAGAGAUUAACA | 0.0352 ± 0.0093 |
| UAGUGUCAGACCUUCUCUGAGAGAUUAACA | 0.108 ± 0.012 |
| UAGUGACAGUCCUCUCUCUGAGAGAUUAACA | 0.0422 ± 0.0075 |
| UAGUCUGUCAGGAUCUCUGAGAGAUAUUGA | < 0.0001 |
| UAGUGACACACCUUCUCUAAGAGAUUAACA | 0.118 ± 0.0097 |
| UAGUGAGUCACCAACUCUGAGAGAUUAACA | 0.161 ± 0.01 |
| UAGUCUGUCACCUUGUGUGAGAGAUUAACA | 0.0457 ± 0.0061 |
| UAGUCUGUCACCUUCUCAGAGAGAUUAUGA | 0.00893 ± 0.006 |
| UAGUGUGUCAGCUACUCUGAGAGAUUAACA | 0.118 ± 0.011 |
| UAGUGUGUCACCUUCUCUGAGAGUUUUUGA | 0.178 ± 0.054 |
| UAGUGACAGUGCUUCUCUGAGAAGAUUAACA | 0.00639 ± 0.0034 |
| UAGUGAGUCAACUUCUCUGAGAGAUUAACA | 0.199 ± 0.015 |
| UAGUGACUCAGCUUCUCUGAGACAUUAACA | 0.00915 ± 0.0024 |
| UAGUGACAGACCAUCUCUGAGAGAUUUACA | 0.0177 ± 0.0054 |

| Sequence | pre-steady-state target cleavage rate |
| --- | --- |
| UAGUGAGUCACCUUCUCUGAGAGUUAACA | 0.253 ± 0.077 |
| UAGUGACAGACCUUCUCUGAGAGCAUUAACA | 0.105 ± 0.018 |
| UAGUCUGUGACCUUCACUGAGAGAUUAACA | 0.116 ± 0.0078 |
| UAGUGUGUCACACUUCUCUGAGAGAUUAACA | 0.0759 ± 0.0091 |
| UAGUGUGUCACCUUCUCUGAGAGAUUAAAA | 0.108 ± 0.022 |
| UAGUCUGUGACCAUCUCUGAGAGAUUAACA | 0.111 ± 0.0064 |
| UAGUCACUCACCUUCUCUGAGAGAUUAAGA | 0.0614 ± 0.019 |
| UAGUCUGACACCUUCUCUGACAGAUUAACA | 0.0296 ± 0.0049 |
| UAGUCUGUCAGCUUCUCUCAGAGAUUAACA | 0.0457 ± 0.0055 |
| UAGUGACAGUGGAACUGUGAGAGUUUAACA | < 0.0001 |
| UAGUGUGUCUCCUUCUCUGAGAGUUUAACA | 0.0778 ± 0.018 |
| UAGUGAGUCACCUUCUCUGAGAGUUUAUGA | 0.275 ± 0.092 |
| UAGUGACAGUCCUACUCUGAGAGAUUAAGA | 0.00576 ± 0.0017 |
| UAGUGAGUCACCAUCUCUGACAGAUUAACA | 0.0409 ± 0.0068 |
| UAGUCUGUCACCUUCUGAGAGAGAUUAUGA | 0.00757 ± 0.0041 |
| UAGUGACAGUGCUUCUCUGAGAGAUUAACCA | 0.0417 ± 0.0094 |
| UAGUGUGUCACCUUCUCUGAGAGAUAAUCA | 0.067 ± 0.027 |
| UAGUGACAGGCCUUCUCUGAGAGAUUAACA | 0.0781 ± 0.011 |
| UAGUGACAGACCUUCACUGAGACAUUAACA | 0.0282 ± 0.012 |
| UAGUGACUCACCUUCUCAGACAGAUUAACA | 0.0331 ± 0.0054 |
| UAGUGACUCACCUUCUUGAGAGAUUAACA | 0.00973 ± 0.0043 |
| UAGUGACUCACCUUCUCUGAGAGUAAAACA | 0.0822 ± 0.017 |
| UAGUGACAGUGCUUCUGUGAGAGAAUAACA | 0.00758 ± 0.0036 |
| UAGUGACAGUCCUUCUCAGAGACAUUAACA | 0.012 ± 0.0037 |
